# Test results taken from the supplement of paper PMC4166925.
# ± gives the standard deviation of the averaged measurements. The full ranking holds about 33,000 sequences; the median of “E-score (dimensionless, -0.5 to 0.5)” is about -0.049, and the highest 2% start at about 0.37. Some of the results follow.
# System: T1, PmTbr T-box DNA-binding domain (GST fusion)
# T1 sequence: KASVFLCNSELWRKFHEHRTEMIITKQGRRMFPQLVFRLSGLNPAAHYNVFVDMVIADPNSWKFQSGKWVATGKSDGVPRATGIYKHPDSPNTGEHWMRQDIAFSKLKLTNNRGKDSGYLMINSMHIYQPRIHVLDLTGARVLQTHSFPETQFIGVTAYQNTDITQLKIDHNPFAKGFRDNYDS
# Assay: PBM E-score of 8-mer (E-score (dimensionless, -0.5 to 0.5)); Tbr is Tbrain of the sea star Patiria miniata (Pm) or the sea urchin Strongylocentrotus purpuratus (Sp); higher = stronger binding preference; most listed sequences are background and not binding sites
# Details: the construct has about 5 more residues each side
# How it was run: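 Primer extension turned Universal Agilent oligonucleotide arrays double-stranded. They were incubated with 200 nM protein in PBS (pH 7.5); the protein was a GST-fused Tbr T-box DNA-binding domain expressed in BL21 E. coli at 20 °C and purified on glutathione. Every ungapped 8-mer was scored from the scanned, quantified probe intensities, and the Universal PBM Analysis Suite gave each an enrichment E-score averaged over duplicate arrays.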
row,Sequence,PBM E-score of 8-mer
1,CATTAAAC,-0.157 ± 0.051
2,GCTCTCCC,-0.302 ± 0.035
3,AAAATATT,-0.0443 ± 0.025
4,AAAGCATG,-0.0507 ± 0.012
5,CCGGGAAA,0.188 ± 0.077
6,ATTATGCA,-0.228 ± 0.023
7,GGGAGGGA,-0.195 ± 0.056
8,CATAAATC,-0.0662 ± 0.0033
9,GATTTGGA,0.00012 ± 0.018
10,GAGTAACA,0.152 ± 0.041
11,ATCTTCTA,-0.0827 ± 0.079
12,AAGGGTCA,-0.0911 ± 0.0054
13,ACGGAAGC,-0.177 ± 0.081
14,CACCCTGC,0.246 ± 0.059
15,GCATTCCC,-0.058 ± 0.03
16,TACCTCAA,-0.132 ± 0.028
17,CGCCAGCG,0.188 ± 0.011
18,AAGGTTTA,-0.14 ± 0.076
19,TTGTGAAA,0.344 ± 0.027
20,ACATGATC,0.0023 ± 0.0017
21,ATATTCCC,-0.0661 ± 0.016
22,GAATTGCC,0.0509 ± 0.048
23,ACATACCC,-0.191 ± 0.11
24,GCAAAGGA,-0.229 ± 0.021
25,ATCAACTA,-0.00773 ± 0.015

row,Sequence,PBM E-score of 8-mer
1,CAAGAGGA,0.00872 ± 0.06
2,AAAGCAGA,-0.068 ± 0.082
3,GACCAACC,-0.166 ± 0.0031
4,GTCACCTA,0.4173 ± 0.0026
5,GTCAGTCA,-0.0381 ± 0.0097
6,CTGTATAC,0.00361 ± 0.024
7,ACGATTGC,0.0801 ± 0.0089
8,ACTTAATC,-0.0608 ± 0.043
9,GGCATCAC,0.196 ± 0.028
10,GGTATCAC,0.318 ± 0.041
11,ACAGATAC,-0.0952 ± 0.059
12,GTACAGCA,-0.0813 ± 0.032
13,ATACACAT,0.0509 ± 0.064
14,AGCCTAGG,-0.164 ± 0.016
15,AATTCGGT,-0.248 ± 0.0088
16,ACCTTAAA,0.0121 ± 0.081
17,AGGTTTTC,-0.154 ± 0.083
18,GAATAATA,-0.234 ± 0.075
19,ACAAGGAT,-0.187 ± 0.017
20,GACGGTTA,-0.0437 ± 0.029
21,CTGGTGAA,-0.00191 ± 0.054
22,CTACGTAC,-0.123 ± 0.039
23,ACGGAACC,-0.0495 ± 0.058
24,CATTATCG,0.08453 ± 0.00072
25,ATCGGTCA,-0.143 ± 0.039

row,Sequence,PBM E-score of 8-mer
1,ATAAAAAG,0.00899 ± 0.013
2,GGGAATAA,-0.129 ± 0.002
3,AAAGCGAC,0.116 ± 0.019
4,CCTATACA,-0.193 ± 0.089
5,CCATCGCC,0.0863 ± 0.027
6,CACGGTGC,0.189 ± 0.018
7,ACGACCCG,0.102 ± 0.046
8,ACGGGGGA,-0.245 ± 0.059
9,GGATTTGA,-0.183 ± 0.035
10,CGTCCCCA,-0.0881 ± 0.11
11,CCGCTATC,0.177 ± 0.0022
12,CTCTGCAC,0.137 ± 0.033
13,AAAGCACT,-0.0471 ± 0.0091
14,AATACGCC,-0.153 ± 0.045
15,GCTGGCCC,-0.192 ± 0.046
16,CTTTACAC,0.323 ± 0.039
17,AAGCGTCC,-0.169 ± 0.057
18,CAGCAGAG,-0.00019 ± 0.033
19,AGATATGC,-0.0212 ± 0.079
20,AAAAGTCA,-0.156 ± 0.0066
21,CGCTAAAG,0.296 ± 0.022
22,AAGGTACA,-0.288 ± 0.034
23,ACTTGTGC,-0.0472 ± 0.024
24,CAAAGAGA,-0.0887 ± 0.031
25,AAATCCTC,-0.274 ± 0.054

row,Sequence,PBM E-score of 8-mer
1,ATAACTCC,-0.168 ± 0.022
2,TCGTTGAA,-0.0542 ± 0.038
3,CATATACA,0.047 ± 0.0093
4,CTAGGTAC,-0.0188 ± 0.026
5,ACCGAGCT,-0.161 ± 0.027
6,GGATGCCC,-0.0684 ± 0.075
7,CATCCCAG,-0.0209 ± 0.0098
8,ATGGTCAA,-0.0586 ± 0.057
9,CGCAGACA,0.101 ± 0.039
10,CATAGTGA,0.149 ± 0.0089
11,ATATTCCA,-0.146 ± 0.036
12,CTGCACCC,-0.036 ± 0.0066
13,CTATTTTC,0.0583 ± 0.037
14,ATGACGGC,0.0072 ± 0.031
15,CGAGGAAA,-0.11 ± 0.12
16,GCGCTGAC,0.122 ± 0.077
17,CTAATTCC,-0.11 ± 0.034
18,AGGCGCAT,-0.116 ± 0.052
19,AGTCACGG,-0.168 ± 0.063
20,CACACGCC,0.258 ± 0.031
21,CGCTTTGC,-0.129 ± 0.036
22,GTCTTCTA,-0.183 ± 0.04
23,CAAGCGCG,0.192 ± 0.0043
24,AGAAAGGG,-0.248 ± 0.041
25,GGCTAATA,-0.326 ± 0.0039

row,Sequence,PBM E-score of 8-mer
1,ACAAGCTG,-0.0569 ± 0.1
2,CGAGATCC,0.0268 ± 0.01
3,AGGAGGTG,0.428 ± 0.0078
4,ATCGAGAA,0.0149 ± 0.02
5,CACCTAAA,0.368 ± 0.0085
6,AAGCAGTA,-0.258 ± 0.0043
7,CATGGTCA,-0.0583 ± 0.024
8,GCGTAGCC,-0.2639 ± 0.0012
9,CTGGCCGA,-0.272 ± 0.051
10,ACAATGGC,-0.0751 ± 0.008
11,GTACTGAA,-0.0918 ± 0.062
12,CGGATCCC,-0.097 ± 0.024
13,AGACTTGC,0.249 ± 0.011
14,CTGGCAGC,0.118 ± 0.11
15,ACGCGTCC,0.0939 ± 0.031
16,AGCATTTA,0.132 ± 0.0024
17,GATTACCC,-0.178 ± 0.028
18,GATAGGCC,-0.144 ± 0.074
19,CAAAATCG,0.0992 ± 0.026
20,ACGTCCCG,-0.0297 ± 0.056
21,GACCCGAA,0.153 ± 0.094
22,CCTAAGGC,-0.16 ± 0.022
23,GCGAGACA,0.153 ± 0.038
24,CAATCATC,0.0678 ± 0.054
25,AGTTCTGG,-0.166 ± 0.044

row,Sequence,PBM E-score of 8-mer
1,ACCATGCA,-0.124 ± 0.067
2,CAATCATG,0.00721 ± 0.038
3,GATTCGCA,0.361 ± 0.02
4,ACCGCCAT,-0.0231 ± 0.013
5,AAGCCCAC,-0.107 ± 0.033
6,CTTCGCCA,0.205 ± 0.017
7,CAATAATA,-0.0437 ± 0.071
8,CCCAAACC,-0.29 ± 0.041
9,CAGCCTTA,-0.125 ± 0.016
10,AAGTGGAA,-0.00496 ± 0.029
11,CGAACCTC,0.0092 ± 0.063
12,ACTGGGCC,-0.326 ± 0.025
13,AACGGTGC,0.229 ± 0.035
14,AGCACCGC,0.0529 ± 0.038
15,AGCTGAAG,-0.169 ± 0.022
16,TAGAAGCA,-0.118 ± 0.037
17,AGGTGTTG,0.4891 ± 0.0019
18,TCATTCAA,-0.266 ± 0.027
19,GGAGTGAA,0.226 ± 0.02
20,GTGTCGGA,0.394 ± 0.015
21,ACCGCACC,0.194 ± 0.045
22,AACCATAA,-0.117 ± 0.042
23,CTGAGGGA,-0.0382 ± 0.043
24,GCAGTTTA,0.0173 ± 0.11
25,GTACGCAA,-0.223 ± 0.03

row,Sequence,PBM E-score of 8-mer
1,CCCAAGTA,-0.0284 ± 0.033
2,CCCGGCAC,0.17 ± 0.026
3,AATCAAGG,-0.128 ± 0.019
4,CTAGCAGA,0.0492 ± 0.064
5,GGGACCTA,-0.174 ± 0.011
6,AGAGTCTA,-0.203 ± 0.064
7,CGCACACG,0.132 ± 0.0096
8,GTCAAGAA,-0.0436 ± 0.0075
9,ATTGTGAC,0.116 ± 0.039
10,ATTTAAAA,-0.169 ± 0.094
11,ATTTCTTG,-0.0691 ± 0.14
12,AAGTCCAT,-0.145 ± 0.019
13,GACGCAAC,0.114 ± 0.071
14,ATCCATCC,-0.273 ± 0.037
15,ACAAGGTC,0.1572 ± 0.00086
16,CATCATGC,-0.0796 ± 0.046
17,AAGCGGAA,-0.0005 ± 0.025
18,GTAAGCCA,-0.191 ± 0.041
19,GCACTTCA,0.271 ± 0.012
20,CATCACCG,-0.139 ± 0.039
21,CGGATCTC,-0.299 ± 0.013
22,TCTGAAAA,-0.253 ± 0.057
